We go through 56 variants from the RNAGym collection of RNA variant scans (doi:10.7554/elife.90254).

To fix the notation:
B1: LINE1-mini (parent)
chain: GGCAGAGCUCAACACAGCGUGGCAAAGUGGCUGUGGCUAGACUGCC

The source gives no read counts; variants with many changes may rest on few reads.

The variants in the series derive from B1. Nature of the series: self-cleavage, relative activity (ratio to wild type); higher = more cleavage; in vitro, sequencing; the parent is a self-cleaving ribozyme.
As for GGCAGAGCUCAACAAAGCGUGGCAAAGUGCCUGUGGCUAGACUGAC, the self-cleavage amounted to 0.03.

In the case of GGCAGACCUCAACACAGCGUCGCAAAGUGGCUUUGGCUAGAUUGCC, the self-cleavage was determined as 0.01.

Take UGCAGAGCUCAAGACAGCGUGGCAAAGUGGCUGUGGCUAGACAGCC: the self-cleavage worked out at 0.02.

With GGCAGAGCUCAACACAGCGUGGCAAAGUGGCAGUGGCUAGUCUGCU, the self-cleavage amounted to 0.04.

Take CGCAGAGCUCAACACAGCGUGGCUAAGUGGCUGUGGGUGAACUGCC: the self-cleavage is 0.

As for GGCACAGUUCAACACAGCGUGGCAAAGUGGCUGUGGCUAGAGUUCC, the self-cleavage was 0.1.

For the variant GGAAGAGCUCAAGACAGCGUGGCAAAGUGGCUUUGGCUAGACUGCC, the self-cleavage stood at 0.36.

GUCAGAGCUCAACACAGCGUAGCAAAGUGGCUGUGGCUAGACUGCA: the self-cleavage was 0.04.

As to GUCAGAGCUCAACACAGCGUGGCAAAAUGGCUGUGGCUAGACUGAC, the self-cleavage stood at 0.15.

GGCAGAGCUCAACUCAGCGUGGCAAAGUUGCUGUGGCUAGACUGCA: the self-cleavage came to 0.41.

As for GGCAGAGCUCAACACAGCGUGGGAAAGUGGGUGUGCCUGGACUGCC, the self-cleavage is 0.

With GGCAGAGCUCAAGACAGCGUGGCAAAAUGCCUGUGGCUAGACUGCC, the self-cleavage was 0.05.

For the variant GGCAGAGCUCAAAACAGCGUGGCGAAUUGGCUGUGGCUAGACUGCC, the self-cleavage was 0.04.

Take GGCAGAACUCAACACAGCGUGGCAAAGUGGCUGUGGUUCGACUGCC: the self-cleavage stood at 0.05.

Consider GGAAGAGCUCAACACAGCGUGGCGAAGUGGCUGUGGCUGGACUGCG, for which the self-cleavage is 0.04.

For GGCGUAGCUCAACACAGCGUGGCAAACUGGCUGUGGGCAGACUGCC, the self-cleavage stood at 0.04.

Take GGCAGUGCUCAUCACAGCGAGGCAAAGUGGCUGUGACUAGACUGCC: the self-cleavage worked out at 0.04.

As for GGCAGAGCGUAACACAGCGUGGCAAAGUGGCUGUUGCUAGACUGCC, the self-cleavage worked out at 0.04.

Regarding GGCAGAGCUCAAUACAGCGUGGCAAAGUCGCUGGGGCUAGACUGCU, the self-cleavage was found to be 0.01.

Turning to UGCAGAGCUCAACACAGCGUGGAAAAGUGGCUGUGGCUAGACUUCC, the self-cleavage was found to be 0.21.

As for GGCAGAGCUCAACACAGCGUGACACAAUGGUUUGGGCUGGACUGCC, the self-cleavage was determined as 0.01.

As to UGCAAAGCUCAACACAGCGUGGCAAAGUGGCUGUGGCUAGGCUGCC, the self-cleavage came out at 0.03.

Consider GGCAGUGCUCAACACAGCGUCGCAAAGUGGCUGUGGCUACACUGCU, for which the self-cleavage was 0.06.

For the variant GGCUGAGCUCAACACAGAGUGGCAAAGUGGGUGUGGCUAGACUGCC, the self-cleavage was 0.03.

Take GGAAAAGCUCACCAGAGCGUUGCAUAGUGGCUGUGGCUAGACUGCC: the self-cleavage was determined as 0.04.

As to GGCAGAGAUCAACACAGCGUGGCAAAGUGGCUGUGGUUAGACUUCC, the self-cleavage came out at 0.17.

As for GGCAGAGCUCAACACAGCGUGGCAAAGUGGCUAUGCCUAAACUGCC, the self-cleavage is 0.07.

Turning to GGCAUAGCUCAACAUAGCGUGACAAAGUGGCUGUGGAUAGACUGCC, the self-cleavage is 0.01.

Consider GGCAGGGCUCAAUACAGCGUGGCCAAGUGGCUGUGGCUAGACUGCA, for which the self-cleavage worked out at 0.04.

In the case of GGCCGAGCUCAACACAGCGUUGAAAAGUGGCUGUUGCUAUACUGCC, the self-cleavage worked out at 0.06.

For the variant GGCCGAGCUCAACACAGCGUGGCAAAGUGGCUAUGGCUAGACUGCG, the self-cleavage worked out at 0.04.

In the case of UGCAGAGCUCAACACAGCGUGGCAAAGGGGCUGUGCCUAGACUGCC, the self-cleavage turned out to be 0.04.

With GGCAGAUCUCAUCACAGCGUGGCAAAGUUGCUGUGGCUAGACUGCC, the self-cleavage turned out to be 0.02.

As for GGCAGUUCUUAACACAACGUGGCAAAGUGGCUGUGGCUAGACUGCC, the self-cleavage is 0.02.

Take GGCAGAGUUCAACACAGAGUGGCAAAGUGGCUGUGCAUAGAGUGCC: the self-cleavage amounted to 0.05.

As for GCCAGAGCUCAACACAGCGUGGCUAUGUGGCUGUGGCUAGACUGCC, the self-cleavage was 0.06.

For CCCAGAGCUCAACACAGCGUGGCAAACUGGCGGUGGCUAGACUGCC, the self-cleavage stood at 0.2.

Turning to GCCAGAGCUCCACCCAGCGUGGCAAAGUGGCUGUGGCUAGACUGCC, the self-cleavage worked out at 0.01.

Turning to GGCAGAGCUCGACACAGCGUGCCAAAAUGGCUGUGGCUAGACUGCC, the self-cleavage is 0.01.

As to GCCAGAGCUCAACACAGAGUGGCAAAGUGGCUGUGGCUAGACCGCC, the self-cleavage came out at 0.03.

For GGCAGAGCUCUAUAGAGCGUGGCAAAGUGGCUGUGGCUAGGCUGCC, the self-cleavage is 0.01.

As to GGCAGAGCUCAACACAGCGUGGCAAAGUGGCUGCGGUUAUACUGCC, the self-cleavage came out at 0.01.

Consider GGCAGGGCUCAACAUAGCGUGGCAAAGUGGCUGCGGCUAGGCUGCC, for which the self-cleavage came to 0.13.

On to GGCGGAGUUCAACACAGCGUGGCAAAGGGGCUGUGGCUAGACUGUC, for which the self-cleavage came out at 0.56.

For GGCAGAGUUCGACACAGCGUGCCAUAGUGGCUGCGGCGAGACUGCC, the self-cleavage is 0.01.

Regarding GGCAGUGAUCAACACAGCGUGGCAAAGUGGCUGUGUCUAGACUGCC, the self-cleavage was 0.14.

GGCAGAGCUCAACAUACCGUGGAAAUAUGGCUGUGGCUAUACUGCC: the self-cleavage came out at 0.02.

Turning to AGCAGAGCUCAACACAGCGUGGCAAAGUGGUUGUGGCUAAACUGCC, the self-cleavage came to 0.01.

With GGCACAGAUCAACACAGCGUGGCAAAGUGGAUUUGGCUUGACUGCC, the self-cleavage came out at 0.03.

On to GGCAGAGAUCAACCGAGCGUGGCACAGUGGCUGUGGCUAGGCUGCC, for which the self-cleavage was 0.06.

On to GGCAGAGCUCAACACACCGUGCCAAAGUGGGUGUGGCUAGACUGCC, for which the self-cleavage turned out to be 0.41.

GGCACAGCUCAACACAGCGUGGCAAAGUUGCUGUGGCUAGACUGAC: the self-cleavage was determined as 0.04.

Consider GGCAGAGCUCAACACAGAGUGGCAAAGCGGCUGUGGCUAGACUGCA, for which the self-cleavage is 0.22.

On to GCCCGAGCUCAACACAGCGUUGAAAAGUGGCUGUGGCUAGACUGCC, for which the self-cleavage was 0.04.

On to GGCAGAGCUCAACUCAGCGUAGCAAAGUGGCUGUGGAUAGACUGCC, for which the self-cleavage came to 0.04.

Consider GGCAGAGCUCAACACAGCGUGACAAGGAGGCUGUGGCUAGACUGCC, for which the self-cleavage was 0.37.
